This is one part of the list. The energies were worked out here from pooled read counts, against the library average; single values are noisy.
What follows are sequences tested against T1, Pho4 (S. cerevisiae) (UniProt P07270) (assay: relative binding free energy (BET-seq); higher = weaker binding). Details: reference: library average.
T1 sequence: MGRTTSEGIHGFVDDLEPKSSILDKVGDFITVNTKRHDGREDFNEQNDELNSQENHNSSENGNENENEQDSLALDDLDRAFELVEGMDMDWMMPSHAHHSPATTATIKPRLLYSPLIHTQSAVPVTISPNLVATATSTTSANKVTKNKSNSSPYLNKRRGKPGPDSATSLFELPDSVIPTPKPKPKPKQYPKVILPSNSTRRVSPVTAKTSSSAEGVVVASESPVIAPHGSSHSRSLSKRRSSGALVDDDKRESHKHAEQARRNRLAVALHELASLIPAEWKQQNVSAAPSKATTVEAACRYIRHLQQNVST

| Sequence | relative binding free energy [kcal/mol] |
| --- | --- |
| TAGTGCACGTGTTAAT | 0.01 |
| AGTGGCACGTGTTGCC | 0.01 |
| TTAGGCACGTGAGTGT | 0.15 |
| TGTATCACGTGGTTAC | 0.11 |
| GTAATCACGTGTGCTT | 0.07 |
| TGGTGCACGTGTGAAT | 0.15 |
| GTAAACACGTGTGTTT | 0.1 |
| CTGGGCACGTGGTTTA | -0.01 |
| TGGAGCACGTGTTGCT | -0.08 |
| GGGTGCACGTGGAGTT | 0.16 |
| CTATACACGTGGGGGT | -0.03 |
| GCATACACGTGGTTTG | 0.05 |
| CATGTCACGTGTGGGC | 0.13 |
| GTAGGCACGTGGTCGT | -0.09 |
| GATCGCACGTGAGAGG | 0.28 |
| AGGGGCACGTGTTTAA | -0.16 |
| GCGCGCACGTGGTGTA | -0.19 |
| TGATGCACGTGGTGCG | -0.08 |
| TGGTTCACGTGTGGCT | 0.21 |
| TTATGCACGTGGTCTA | -0.3 |
| TTGGGCACGTGTTACA | -0.08 |
| TGTTGCACGTGGTATC | 0.05 |
| TGTAGCACGTGAATTT | 0.17 |
| TTGGTCACGTGTCAGT | 0.11 |
| GTATTCACGTGGGGAA | 0.16 |

| Sequence | relative binding free energy [kcal/mol] |
| --- | --- |
| TTTAACACGTGATTGA | 0.06 |
| GATGTCACGTGATGAG | 0.31 |
| TGGTCCACGTGCTTTT | -0.02 |
| GCGGGCACGTGTGTAT | -0.06 |
| AAGTTCACGTGTCGGG | 0.52 |
| GTTACCACGTGAAGGT | 0.24 |
| GGTGGCACGTGTGCTT | 0.01 |
| GATGGCACGTGTCGAG | 0.03 |
| TTAGCCACGTGAGTTG | 0.06 |
| GTGTCCACGTGTCGTT | 0.19 |
| AGGCGCACGTGTGGAG | 0 |
| TGGGGCACGTGATAGC | -0.01 |
| ATGCTCACGTGATTTA | 0.28 |
| AGAGTCACGTGCGAGA | 0.28 |
| GGACTCACGTGTAAGG | 0.33 |
| TCGGGCACGTGTTGAT | -0.1 |
| GGAGGCACGTGGTAAG | -0.13 |
| GCAATCACGTGAGGTG | 0.46 |
| TGATTCACGTGACGTG | 0.25 |
| TTTTGCACGTGTAATG | 0.13 |
| TATCTCACGTGGATTG | 0.22 |
| TTAAGCACGTGAGAGA | 0.24 |
| CGGGTCACGTGGGGAA | 0 |
| CTTGGCACGTGTGTCG | -0.13 |
| TAATGCACGTGGGGGG | -0.2 |

| Sequence | relative binding free energy [kcal/mol] |
| --- | --- |
| CTTGTCACGTGATTTG | 0.29 |
| GTGCACACGTGGGTGA | -0.03 |
| GGTGTCACGTGCTAGT | 0.04 |
| TCGTTCACGTGGGTAT | 0.37 |
| GTTTTCACGTGGTATG | 0.33 |
| CGACTCACGTGGGTGG | 0.14 |
| CGGAGCACGTGAGTGT | 0.12 |
| ATTTACACGTGTAATG | 0.14 |
| TAATGCACGTGAGTGG | 0.1 |
| GTAGGCACGTGAGGCG | 0.18 |
| TGCGTCACGTGTCGAG | 0.17 |
| GGCTTCACGTGAGGTT | 0.42 |
| AGAGTCACGTGGGCTT | 0.01 |
| TAATCCACGTGTGTGT | -0.03 |
| TTGCGCACGTGCGGGG | -0.17 |
| AGGATCACGTGGAGTT | 0.16 |
| ATTCCCACGTGGTGGG | -0.14 |
| AAGCGCACGTGGGATT | -0.11 |
| TGTATCACGTGCGTGA | -0.01 |
| AAAGTCACGTGTCTGT | 0.3 |
| ACTGTCACGTGGCGTG | 0.13 |
| GAGTGCACGTGAAAGT | 0.34 |
| AAGTGCACGTGCTGTA | -0.14 |
| TTGTTCACGTGGTTCA | 0.13 |
| TGAGTCACGTGTAGCG | 0.25 |

| Sequence | relative binding free energy [kcal/mol] |
| --- | --- |
| GATGACACGTGGTTTT | 0.05 |
| GTAAGCACGTGAATGA | 0.42 |
| GGGGGCACGTGGAAAG | -0.05 |
| ACAGGCACGTGTGTTG | -0.27 |
| CGGGGCACGTGAGTTG | 0.14 |
| TGGCTCACGTGATTAG | 0.25 |
| CTTATCACGTGGGGAA | 0.07 |
| TTCGGCACGTGAATGT | 0.12 |
| TTATTCACGTGCTGTC | 0.21 |
| TAGAGCACGTGTTTTA | -0.12 |
| TAATGCACGTGGGACT | 0.01 |
| AGTTGCACGTGAATAT | 0.2 |
| GTATTCACGTGATGGC | 0.43 |
| TCAGGCACGTGATGAG | 0.01 |
| AGTAACACGTGTGTAA | -0.07 |
| TTATGCACGTGGGCCT | -0.19 |
| TTGTGCACGTGGGTGA | -0.11 |
| TGTGGCACGTGGTGTG | -0.13 |
| GTTAACACGTGTGGTA | 0.02 |
| GCATTCACGTGTTTTA | 0.17 |
| GGTAGCACGTGTGATT | -0.04 |
| TGAGTCACGTGTGCTG | 0.05 |
| GTGCTCACGTGTGGCT | 0.25 |
| GTTGGCACGTGTCTGC | -0.04 |
| CGGGGCACGTGATGTG | -0.03 |

| Sequence | relative binding free energy [kcal/mol] |
| --- | --- |
| GGTCACACGTGAGGGT | 0.32 |
| TGGGACACGTGCATGT | -0.11 |
| GCTGTCACGTGTGGGT | 0.25 |
| TATTTCACGTGTAACG | 0.46 |
| AGTGGCACGTGTTAAC | -0.06 |
| TAAAGCACGTGTGGAA | 0.05 |
| AATTTCACGTGACTGG | 0.42 |
| GTAGGCACGTGTTGCT | 0.05 |
| TTTCCCACGTGTTTAT | 0.15 |
| GGTCACACGTGTTGGT | 0.12 |
| ATTTTCACGTGCGCGT | 0.26 |
| GGTTACACGTGATCTT | 0.16 |
| CTATTCACGTGCTGGG | 0.25 |
| TCATTCACGTGTATTT | 0.3 |
| AACGTCACGTGGTGGT | 0.02 |
| GGAGGCACGTGTGCCG | -0.04 |
| TGTGTCACGTGGATTA | 0.11 |
| TTGTCCACGTGGGATT | 0.02 |
| ATGTGCACGTGCTCGG | -0.15 |
| AGCTTCACGTGGTTGA | 0.2 |
| GTGCGCACGTGCGGTT | -0.03 |
| TGGTTCACGTGCGCAT | 0.11 |
| TGAGACACGTGGTAGC | 0.14 |
| CGTGTCACGTGATGCA | 0.13 |
| TTGTCCACGTGTATAT | -0.01 |

| Sequence | relative binding free energy [kcal/mol] |
| --- | --- |
| AATGGCACGTGGCCGT | -0.14 |
| CGCAGCACGTGGGGCG | -0.18 |
| GGTAGCACGTGTGGAT | -0.03 |
| GAGTGCACGTGTCGAT | 0.07 |
| TTTGTCACGTGTGTCG | 0.1 |
| TGGTTCACGTGTGTTG | 0.28 |
| GAAGGCACGTGGTCCG | -0.01 |
| TCCTTCACGTGTTTTG | 0.25 |
| AGCATCACGTGTGGGA | 0.09 |
| TCTAGCACGTGCGGTA | -0.04 |
| ATGCACACGTGGAGGT | -0.05 |
| GCTGCCACGTGGTGGA | 0.05 |
| TGTCGCACGTGGTACG | -0.18 |
| AGTGTCACGTGCATTA | 0.01 |
| GGTGTCACGTGGGTCC | -0.05 |
| TGAATCACGTGTTGTC | 0.27 |
| AGGGTCACGTGTTATA | 0.04 |
| TATGTCACGTGAGCTT | 0.19 |
| GGGCCCACGTGTGGCG | 0.1 |
| GAGCACACGTGGTTGG | 0.12 |
| ACTGACACGTGTTTTT | 0.11 |

— the BET-seq Pho4 binding data (Le et al. 2018)
